Laboratory results as given in paper PMC5612953, “Stable MOB1 interaction with Hippo/MST is not essential for development and tissue growth control” (Nature Communications, 2017).
Where a chain is given by its changes, count along the chain named. Numbers in names are those of the source. These are yes or no findings as the source states them, for the method shown. Binding seen in cells or lysates may run through a third protein. Some binding calls cover weakened binding; strength is not graded here. Where a sequence is shown, tags or fusion partners need not be part of it.

The chains behind the UniProt entries cited, without tags or fusion partners.
UniProt Q15208: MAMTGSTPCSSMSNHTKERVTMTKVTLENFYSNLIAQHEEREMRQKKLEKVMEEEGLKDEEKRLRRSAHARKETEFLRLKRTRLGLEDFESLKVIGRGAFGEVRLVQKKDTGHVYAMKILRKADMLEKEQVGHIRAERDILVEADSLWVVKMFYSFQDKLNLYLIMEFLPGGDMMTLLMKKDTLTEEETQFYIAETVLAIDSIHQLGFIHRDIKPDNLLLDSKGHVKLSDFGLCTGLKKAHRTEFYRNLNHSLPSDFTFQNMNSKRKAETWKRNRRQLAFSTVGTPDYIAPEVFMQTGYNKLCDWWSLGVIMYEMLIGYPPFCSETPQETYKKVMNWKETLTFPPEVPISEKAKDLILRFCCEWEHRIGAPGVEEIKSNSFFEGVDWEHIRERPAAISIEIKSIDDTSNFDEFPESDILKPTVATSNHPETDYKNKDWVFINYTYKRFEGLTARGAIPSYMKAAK
UniProt Q9Y2H1: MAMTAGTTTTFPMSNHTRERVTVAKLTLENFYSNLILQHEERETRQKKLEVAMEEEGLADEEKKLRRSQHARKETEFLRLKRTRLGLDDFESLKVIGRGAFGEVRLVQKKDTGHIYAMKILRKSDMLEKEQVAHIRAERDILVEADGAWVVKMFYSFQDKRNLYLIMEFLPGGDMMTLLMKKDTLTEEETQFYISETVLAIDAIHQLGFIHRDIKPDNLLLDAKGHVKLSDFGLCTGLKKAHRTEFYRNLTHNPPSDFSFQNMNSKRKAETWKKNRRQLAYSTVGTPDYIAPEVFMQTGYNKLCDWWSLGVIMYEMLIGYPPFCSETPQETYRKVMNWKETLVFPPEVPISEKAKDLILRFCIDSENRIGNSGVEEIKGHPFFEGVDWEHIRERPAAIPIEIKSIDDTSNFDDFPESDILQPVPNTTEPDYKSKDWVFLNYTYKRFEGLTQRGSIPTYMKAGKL

Assays:
[1] = target: T1, HA-tagged full-length wild-type human LATS2 (human) (UniProt Q9NRM7); test: co-IP; HEK293 cells co-expressing myc-MOB1A variants and HA-tagged kinases; IP with anti-HA (12CA5), blot anti-myc; low-stringency buffer (30 mM HEPES pH 7.4, 20 mM KCl, 1% TX-100)
T1 sequence: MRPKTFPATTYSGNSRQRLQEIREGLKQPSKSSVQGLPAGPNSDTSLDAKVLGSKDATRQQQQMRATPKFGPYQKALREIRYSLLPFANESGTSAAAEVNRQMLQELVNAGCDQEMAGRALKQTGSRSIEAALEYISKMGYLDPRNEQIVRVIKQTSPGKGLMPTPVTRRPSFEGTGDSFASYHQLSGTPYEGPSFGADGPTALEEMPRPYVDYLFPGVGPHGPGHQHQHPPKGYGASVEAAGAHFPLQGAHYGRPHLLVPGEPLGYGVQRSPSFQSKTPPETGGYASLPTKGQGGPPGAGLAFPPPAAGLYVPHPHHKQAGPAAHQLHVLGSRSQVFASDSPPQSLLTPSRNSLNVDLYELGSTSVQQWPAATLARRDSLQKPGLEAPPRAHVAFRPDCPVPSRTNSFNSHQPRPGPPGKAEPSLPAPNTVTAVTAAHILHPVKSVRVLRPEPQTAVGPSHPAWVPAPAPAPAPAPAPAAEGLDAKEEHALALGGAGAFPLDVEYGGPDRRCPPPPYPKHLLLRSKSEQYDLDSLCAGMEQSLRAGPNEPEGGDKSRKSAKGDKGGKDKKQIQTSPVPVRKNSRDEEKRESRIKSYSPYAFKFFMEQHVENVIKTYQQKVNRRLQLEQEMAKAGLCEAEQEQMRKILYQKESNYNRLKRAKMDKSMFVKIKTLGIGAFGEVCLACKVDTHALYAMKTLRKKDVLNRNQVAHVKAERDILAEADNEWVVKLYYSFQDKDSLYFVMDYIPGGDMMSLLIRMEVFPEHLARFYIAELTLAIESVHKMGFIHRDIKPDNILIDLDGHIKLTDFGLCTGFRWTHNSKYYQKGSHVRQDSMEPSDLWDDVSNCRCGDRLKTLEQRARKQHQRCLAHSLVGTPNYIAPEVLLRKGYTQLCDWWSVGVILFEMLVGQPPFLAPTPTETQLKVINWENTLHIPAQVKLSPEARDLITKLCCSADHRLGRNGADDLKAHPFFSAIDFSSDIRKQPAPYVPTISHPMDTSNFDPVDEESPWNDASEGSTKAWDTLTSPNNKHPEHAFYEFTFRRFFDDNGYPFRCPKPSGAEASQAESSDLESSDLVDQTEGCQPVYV

[2] = target: T2, HA-tagged wild-type human LATS1 (human) (UniProt O95835); test: as above
T2 sequence: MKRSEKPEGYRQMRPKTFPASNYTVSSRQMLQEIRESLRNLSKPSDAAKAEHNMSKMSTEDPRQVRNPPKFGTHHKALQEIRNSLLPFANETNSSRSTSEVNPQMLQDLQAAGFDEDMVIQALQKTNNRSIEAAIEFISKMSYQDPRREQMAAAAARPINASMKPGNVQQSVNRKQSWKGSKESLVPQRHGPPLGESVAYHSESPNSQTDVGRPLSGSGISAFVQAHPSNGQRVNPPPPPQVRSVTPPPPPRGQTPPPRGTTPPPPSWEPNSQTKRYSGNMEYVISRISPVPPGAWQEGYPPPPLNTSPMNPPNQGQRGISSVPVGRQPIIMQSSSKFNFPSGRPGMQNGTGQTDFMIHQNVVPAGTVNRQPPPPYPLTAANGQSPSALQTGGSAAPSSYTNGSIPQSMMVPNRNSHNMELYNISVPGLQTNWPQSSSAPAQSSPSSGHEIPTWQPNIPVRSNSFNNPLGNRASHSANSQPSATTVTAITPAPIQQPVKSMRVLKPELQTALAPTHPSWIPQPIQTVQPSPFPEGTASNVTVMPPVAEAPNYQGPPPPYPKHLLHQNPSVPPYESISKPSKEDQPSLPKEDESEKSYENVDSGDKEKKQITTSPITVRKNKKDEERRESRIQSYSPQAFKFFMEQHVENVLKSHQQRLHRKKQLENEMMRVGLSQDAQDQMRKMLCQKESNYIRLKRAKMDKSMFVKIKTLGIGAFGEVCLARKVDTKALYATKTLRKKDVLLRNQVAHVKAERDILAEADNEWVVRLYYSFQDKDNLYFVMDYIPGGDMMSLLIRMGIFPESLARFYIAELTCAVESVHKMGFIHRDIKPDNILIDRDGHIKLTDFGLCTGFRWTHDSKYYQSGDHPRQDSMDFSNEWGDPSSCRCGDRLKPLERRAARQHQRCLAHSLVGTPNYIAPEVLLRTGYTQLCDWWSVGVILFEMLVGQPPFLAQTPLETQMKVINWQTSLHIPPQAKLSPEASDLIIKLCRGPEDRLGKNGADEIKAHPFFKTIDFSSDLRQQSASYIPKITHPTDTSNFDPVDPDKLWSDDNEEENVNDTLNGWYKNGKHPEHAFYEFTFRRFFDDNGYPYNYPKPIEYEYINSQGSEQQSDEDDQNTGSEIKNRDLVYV

[3] = target: HA-tagged wild-type human NDR1 (human) (UniProt Q15208); test: as above
[4] = target: HA-tagged wild-type human NDR2 (human) (UniProt Q9Y2H1); test: as above
[5] = target: T3, full-length HA-MST1 wild-type (human) (UniProt Q13043); test: as above
T3 sequence: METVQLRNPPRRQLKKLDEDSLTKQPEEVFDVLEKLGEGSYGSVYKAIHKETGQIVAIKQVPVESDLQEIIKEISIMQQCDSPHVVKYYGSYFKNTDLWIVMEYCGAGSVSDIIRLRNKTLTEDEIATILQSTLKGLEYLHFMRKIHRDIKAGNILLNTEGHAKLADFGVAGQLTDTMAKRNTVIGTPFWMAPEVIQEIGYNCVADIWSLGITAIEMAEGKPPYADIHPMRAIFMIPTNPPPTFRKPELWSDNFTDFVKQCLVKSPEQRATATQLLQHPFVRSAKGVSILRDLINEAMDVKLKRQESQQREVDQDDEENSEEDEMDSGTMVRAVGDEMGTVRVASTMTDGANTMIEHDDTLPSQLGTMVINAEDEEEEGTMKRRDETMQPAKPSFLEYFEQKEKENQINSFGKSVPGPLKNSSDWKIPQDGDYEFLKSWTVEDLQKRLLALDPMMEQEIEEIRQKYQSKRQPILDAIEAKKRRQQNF

[6] = target: T4, full-length HA-MST2 wild-type (human) (UniProt Q13188); test: as above
T4 sequence: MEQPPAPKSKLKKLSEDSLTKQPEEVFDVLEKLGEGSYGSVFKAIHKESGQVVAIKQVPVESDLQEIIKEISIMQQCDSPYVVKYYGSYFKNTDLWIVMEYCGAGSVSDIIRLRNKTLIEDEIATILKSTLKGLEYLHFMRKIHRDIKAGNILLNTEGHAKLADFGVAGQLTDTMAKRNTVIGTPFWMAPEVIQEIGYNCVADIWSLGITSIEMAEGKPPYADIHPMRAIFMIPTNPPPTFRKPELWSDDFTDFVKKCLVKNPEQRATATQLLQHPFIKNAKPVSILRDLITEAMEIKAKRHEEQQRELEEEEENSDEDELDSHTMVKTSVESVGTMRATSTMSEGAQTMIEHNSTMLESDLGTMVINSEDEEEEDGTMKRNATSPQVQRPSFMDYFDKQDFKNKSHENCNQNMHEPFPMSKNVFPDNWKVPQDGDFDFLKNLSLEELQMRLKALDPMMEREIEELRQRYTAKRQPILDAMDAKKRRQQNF

[7] = target: T5, fly HA-tagged Warts (Wts) (Drosophila) (UniProt Q9VA38); test: co-IP; Drosophila S2R+ cells co-expressing myc-MOB1A variants and HA-tagged Wts, Trc or Hpo; IP with anti-HA, blot anti-myc; low-stringency buffer
T5 sequence: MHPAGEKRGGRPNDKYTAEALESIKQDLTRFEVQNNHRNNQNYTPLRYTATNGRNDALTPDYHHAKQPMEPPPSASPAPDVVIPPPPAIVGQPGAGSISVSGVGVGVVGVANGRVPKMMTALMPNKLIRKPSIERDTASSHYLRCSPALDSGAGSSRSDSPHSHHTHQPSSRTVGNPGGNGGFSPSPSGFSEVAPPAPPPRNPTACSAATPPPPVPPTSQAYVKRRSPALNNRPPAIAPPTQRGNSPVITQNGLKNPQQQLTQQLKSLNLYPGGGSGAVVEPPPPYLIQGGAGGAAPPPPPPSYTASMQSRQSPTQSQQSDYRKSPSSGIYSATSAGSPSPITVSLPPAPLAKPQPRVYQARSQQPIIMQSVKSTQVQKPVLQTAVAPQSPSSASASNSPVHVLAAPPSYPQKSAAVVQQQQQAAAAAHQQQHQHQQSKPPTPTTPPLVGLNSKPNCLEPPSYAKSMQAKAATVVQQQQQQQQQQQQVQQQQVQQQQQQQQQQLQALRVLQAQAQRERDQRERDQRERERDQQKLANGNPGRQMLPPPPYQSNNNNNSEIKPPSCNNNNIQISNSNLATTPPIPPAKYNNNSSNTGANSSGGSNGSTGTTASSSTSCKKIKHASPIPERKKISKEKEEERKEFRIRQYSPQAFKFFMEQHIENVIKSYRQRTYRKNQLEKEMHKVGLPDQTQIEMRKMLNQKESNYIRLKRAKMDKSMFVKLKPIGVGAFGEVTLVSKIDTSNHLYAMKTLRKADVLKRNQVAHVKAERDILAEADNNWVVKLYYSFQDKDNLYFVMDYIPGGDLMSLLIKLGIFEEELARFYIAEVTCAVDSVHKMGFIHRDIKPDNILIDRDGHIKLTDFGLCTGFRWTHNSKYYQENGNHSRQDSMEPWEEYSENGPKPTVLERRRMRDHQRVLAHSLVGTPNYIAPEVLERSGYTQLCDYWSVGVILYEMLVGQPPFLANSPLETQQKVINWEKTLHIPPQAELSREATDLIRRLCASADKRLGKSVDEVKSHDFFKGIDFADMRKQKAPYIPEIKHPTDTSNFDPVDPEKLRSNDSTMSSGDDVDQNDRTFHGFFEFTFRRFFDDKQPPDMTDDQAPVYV

[8] = target: T6, full-length HA-Hpo(wt) (Drosophila) (UniProt Q8T0S6); test: as above
T6 sequence: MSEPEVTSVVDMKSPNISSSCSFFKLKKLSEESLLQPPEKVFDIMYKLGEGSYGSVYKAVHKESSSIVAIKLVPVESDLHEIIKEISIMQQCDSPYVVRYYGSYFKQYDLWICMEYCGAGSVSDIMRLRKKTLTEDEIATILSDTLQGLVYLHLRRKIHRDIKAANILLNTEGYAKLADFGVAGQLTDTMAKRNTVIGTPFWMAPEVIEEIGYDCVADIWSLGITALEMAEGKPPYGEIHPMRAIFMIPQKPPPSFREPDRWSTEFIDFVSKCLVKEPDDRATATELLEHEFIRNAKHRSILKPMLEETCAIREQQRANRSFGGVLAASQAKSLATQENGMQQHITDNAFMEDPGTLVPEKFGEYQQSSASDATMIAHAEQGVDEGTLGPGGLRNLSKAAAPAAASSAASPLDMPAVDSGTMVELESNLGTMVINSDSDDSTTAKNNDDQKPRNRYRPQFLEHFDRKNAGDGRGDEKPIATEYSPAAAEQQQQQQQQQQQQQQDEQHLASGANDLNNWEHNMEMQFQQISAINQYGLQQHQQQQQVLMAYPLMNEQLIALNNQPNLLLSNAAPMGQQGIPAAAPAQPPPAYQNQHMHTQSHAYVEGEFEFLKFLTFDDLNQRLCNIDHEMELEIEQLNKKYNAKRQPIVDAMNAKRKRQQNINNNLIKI

B1: myc-tagged full-length human MOB1A(D63V) (HEK293) (protein, UniProt Q9H8S9 1-216)
chain: MSFLFSSRSSKTFKPKKNIPEGSHQYELLKHAEATLGSGNLRQAVMLPEGEDLNEWIAVNTVVFFNQINMLYGTITEFCTEASCPVMSAGPRYEYHWADGTNIKKPIKCSAPKYIDYLMTWVQDQLDDETLFPSKIGVPFPKNFMSVAKTILKRLFRVYAHIYHQHFDSVMQLQEEAHLNTSFKHFIFFVQEFNLIDRRELAPLQELIEKLGSKDR
In the case of B1, the binding [1] is reported as “no binding”, the binding [2] is reported as “no binding” and the binding [3] is reported as “binds”. For the same binder, the binding [4] was “binds”, the binding [5] was “binds” and the binding [6] was “binds”.

B2: myc-tagged full-length human MOB1A(D63V/K104E/K105E) (HEK293) (protein, UniProt Q9H8S9 1-216)
chain: B1 chain with K104E, K105E
B2 was tested, and the binding [1] was “no binding”, the binding [2] was “no binding” and the binding [3] was “binds”. For the same binder, the binding [4] was “binds”, the binding [5] was “no binding” and the binding [6] was “no binding”.

B3: myc-tagged full-length human MOB1A(E51K) (Drosophila S2R+ cells) (protein, UniProt Q9H8S9 1-216)
chain: B1 chain with E51K, V63D
For B3, the binding [7] was “binds” and the binding [8] was “binds”.
